# Assay results published in article PMC4336329 (PLoS ONE, 2015).
# Among all 310,000 compounds or so, about 2,200 (0.71%) showed an effect of 50% or more. Effects have a minus sign here. The list shows a part of the results.
# Molecular target: human ether-à-go-go-related gene (hERG) potassium channel (human, UniProt Q12809)
# Test: primary screen, population patch clamp on CHO cells stably expressing hERG
# Sequence of human ether-à-go-go-related gene (hERG) potassium channel (Q12809 whole entry, looked up): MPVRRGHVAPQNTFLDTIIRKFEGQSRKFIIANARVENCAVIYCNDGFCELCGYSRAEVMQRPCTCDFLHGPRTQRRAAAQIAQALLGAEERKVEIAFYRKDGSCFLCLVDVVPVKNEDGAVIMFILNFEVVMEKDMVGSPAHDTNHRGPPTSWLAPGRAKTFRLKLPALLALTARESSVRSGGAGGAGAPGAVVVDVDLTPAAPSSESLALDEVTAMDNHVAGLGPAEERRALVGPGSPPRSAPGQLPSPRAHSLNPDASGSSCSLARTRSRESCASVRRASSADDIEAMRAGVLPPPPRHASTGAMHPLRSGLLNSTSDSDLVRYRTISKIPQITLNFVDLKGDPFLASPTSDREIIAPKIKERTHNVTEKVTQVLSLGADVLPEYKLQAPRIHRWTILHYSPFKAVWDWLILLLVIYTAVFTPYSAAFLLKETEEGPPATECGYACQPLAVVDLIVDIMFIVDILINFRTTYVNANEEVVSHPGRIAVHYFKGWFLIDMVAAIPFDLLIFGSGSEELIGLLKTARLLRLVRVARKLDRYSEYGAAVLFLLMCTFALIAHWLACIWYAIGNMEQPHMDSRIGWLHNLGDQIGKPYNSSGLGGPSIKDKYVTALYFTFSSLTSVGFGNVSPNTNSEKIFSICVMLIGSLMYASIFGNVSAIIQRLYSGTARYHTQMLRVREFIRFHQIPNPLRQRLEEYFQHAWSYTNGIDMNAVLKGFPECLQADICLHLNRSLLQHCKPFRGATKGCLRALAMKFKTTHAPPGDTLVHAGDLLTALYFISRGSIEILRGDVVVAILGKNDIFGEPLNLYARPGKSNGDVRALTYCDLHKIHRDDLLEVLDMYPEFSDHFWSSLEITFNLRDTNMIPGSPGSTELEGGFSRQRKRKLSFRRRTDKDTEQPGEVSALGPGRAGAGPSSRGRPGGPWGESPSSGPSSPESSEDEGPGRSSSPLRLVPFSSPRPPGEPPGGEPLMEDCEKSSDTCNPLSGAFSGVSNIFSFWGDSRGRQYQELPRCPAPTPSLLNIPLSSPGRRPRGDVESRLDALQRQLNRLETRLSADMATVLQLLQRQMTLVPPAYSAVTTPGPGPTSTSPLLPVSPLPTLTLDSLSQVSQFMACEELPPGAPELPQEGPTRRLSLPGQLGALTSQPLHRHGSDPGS
row,SMILES,"hERG current change (%, negative = inhibition) at 1uM [%]"
1,CC(CN1CCOCC1)OC(=O)c1ccc(Cl)cc1Cl.Cl (stereo not drawn),11.5
2,CC1=CC(=O)O[C@@H]1[C@@]1(C)C[C@H]2OC(=O)C[C@H]3[C@@H](C)C(=O)C(O)=C1[C@@]23CO,4.82
3,CN(C)CCn1c2c(c(SCC(=O)Nc3ccccc3C(F)(F)F)nc1=O)CCCC2,-0.132
4,Cc1ccc(N=C(NO)c2nonc2N)cc1,10.8
5,Cc1ccc(NC(=O)COC(=O)COc2ccc(Cl)cc2)c([N+](=O)[O-])c1,-3.07
6,COc1cc2c(cc1OC)CN(C(=O)CSc1ccc(F)cc1)CC2,6.25
7,O=C(N/N=C1\CCCc2ccccc21)c1ccc([N+](=O)[O-])cc1Cl,6.9
8,CC(=O)c1cccc(NC(=O)c2csc(-n3nc(C)cc3C(F)(F)F)n2)c1,-0.0952
9,Cn1cccc1Cc1nnc(SCC(=O)Nc2ccccc2F)n1-c1ccc(F)cc1,4.36
10,COc1ccccc1Oc1ccc(N/C=C/C(=O)c2ccco2)cc1,26
11,CCCc1cc(=O)n2[nH]c(C)c(-c3ccccc3)c2n1,9.56
12,CCCCOc1ccc(C2OC34CCCCC3C(C#N)(C#N)C2(C#N)C(=N)O4)cc1 (stereo not drawn),0.879
13,COC(=O)c1ccccc1NC(=O)CN1CCC(NC(=O)c2ccc(C)cc2)CC1,7.83
14,COc1ccccc1NS(=O)(=O)c1ccc(O)c(C(=O)OCC(=O)N2c3ccccc3CC2C)c1 (stereo not drawn),5.21
15,COc1cc2[nH]c3c(=O)n(CCN4CCCCC4)cnc3c2cc1OC,9.82
16,O=S(=O)(c1ccc(Cl)cc1)N1CCC(c2nc3ccccc3[nH]2)CC1,7.61
17,COc1cc2c(cc1OC)CN(CC(=O)Nc1ccc(C)cc1)CC2,0.918
18,O=C1N/C(=C/c2ccsc2)C(=O)N1c1ccccc1,9.37
19,Cc1cc(=S)c2cccc(C)c2[nH]1,8.81
20,Cc1cc(C)c(NC(=O)Cn2nc(-c3ccccc3)nc2-c2ccccc2)c(C)c1,0.468
21,COC(=O)c1ccccc1NC(=O)CSc1nccc(C)n1,13.9
22,COc1ccc(NC(=O)c2cc(CC(C)C)nc3ccccc23)cc1,10.6

row,SMILES,"hERG current change (%, negative = inhibition) at 1uM [%]"
1,Cc1ccc(OCC(=O)Nc2ccc3c(c2)nc(CCN2CCC(C)CC2)n3C)cc1,-53.3
2,COc1cc(SC)ccc1C(=O)OC1CCOC1=O (stereo not drawn),9
3,O=C1NC(=O)[C@@H]2C3c4ccccc4C=CN3[C@H](C(=O)c3cccs3)[C@H]12 (stereo partly drawn),11.9
4,O=C(NCCOC12CC3CC(CC(C3)C1)C2)c1cccc(Br)c1,11.2
5,Cc1oc(-c2cccc(Cl)c2)nc1CN1CCCC(C(=O)NCCCN2CCOCC2)C1 (stereo not drawn),6.68
6,COc1cccc(CNC(=O)[C@H](CC(C)C)NC(=O)N2CCn3c2nc2ccccc23)c1,9.42
7,CCOc1ccc(CCNC(=O)c2nnn(CC(=O)Nc3ccccc3C)c2N)cc1OCC,8.36
8,Cn1c(C(C(=O)NCC2CCCO2)N(CCc2ccccc2)C(=O)Cn2nnc3ccccc32)nc2ccccc21 (stereo not drawn),9.83
9,O=C(COC(=O)c1cccnc1Cl)Nc1cc(S(=O)(=O)N2CCOCC2)ccc1Cl,1.41
10,O=C(NC1CCCC1)c1ccc2c(c1)S(=O)(=O)c1ccccc1C2=O,2
11,CCOc1ccc(N(CC(=O)NCCSCc2ccccc2)S(C)(=O)=O)cc1,15.4
12,CC(OC(=O)c1cc(=O)[nH]c2ccccc12)C(=O)Nc1ccc(Cl)cn1 (stereo not drawn),11.2
13,O=C(CSc1nc2ccccc2s1)N/N=C/c1ccccc1C(=O)O,30
14,CCOC(=O)c1c(NC(=O)CN2C(=O)NC3(CCC(C)CC3)C2=O)sc(C)c1-c1ccc(C)cc1 (stereo not drawn),6.35
15,Cc1cc(NCCN)nc2ccccc12.O=[N+]([O-])O,15.2
16,CCN1CCN(CC(=O)Nc2cccc(C)c2C)C(=O)C1=O,4
17,CCc1cc(C(c2ccccc2OC)N2CCOCC2)c(NC(=O)c2ccccc2)s1 (stereo not drawn),16.1
18,COc1ccc(-c2c[n+](CC(=O)c3cccs3)c3n2CCC3)cc1.[Br-],15.5
19,O=C(Cc1ccccc1)NC1CCN(C(=O)NCc2ccccc2)CC1,-8.61
20,O=C(COc1cccnc1[N+](=O)[O-])NC1CCS(=O)(=O)C1 (stereo not drawn),15.7
21,COc1cc(C(=O)N2CCN(c3ccccn3)CC2)cc(OC)c1OC,10.4
22,COc1ccc(C(=O)Nc2ccc(F)cc2F)cc1OC,17.7

row,SMILES,"hERG current change (%, negative = inhibition) at 1uM [%]"
1,CC(=O)c1cccc(NC(=O)CN2C(=O)C(=O)N(Cc3ccco3)C2=O)c1,8.7
2,CC(Cc1ccc(Cl)cc1)N1CCC(n2nccc2NC(=O)C2CCCC2)CC1 (stereo not drawn),-67.5
3,COc1ccc(/C=N/NC(=O)c2ccncc2)cc1[N+](=O)[O-],2.93
4,CC(C)=CCN1CCN(Cc2cnc(N3CCOCC3)s2)CC1CCO (stereo not drawn),13.1
5,O=C(COC(=O)c1ccc(S(=O)(=O)N2CCCC2)cc1)NCc1ccc(F)cc1,8.97
6,CC(=O)Nc1ccc(NC(=O)CSc2nnnn2-c2ccc3c(c2)OCCO3)cc1,-0.0583
7,C/C(=N\NC(=O)c1cc(C(C)C)[nH]n1)c1ccco1,5.77
8,CC(=O)c1ccc(OCC(=O)OCC(=O)Nc2sccc2C(N)=O)cc1,8.96
9,COc1ccc2c(c1)OC[C@H]1[C@H]2N2C(=O)CN(CCc3c[nH]c4ccccc34)C(=O)[C@@]2(C)[C@H]1c1ccccc1,18.6
10,CC(=O)OCCCNc1cc(Sc2ccc(C)cc2)c2nonc2c1[N+](=O)[O-],7.9
11,COc1ccc(C(=O)Nc2ccc(Cl)cc2C(=O)N2CCCC(C)C2)cc1OC (stereo not drawn),14
12,CN1CCN(C(=S)c2cn(Cc3cccc(F)c3)c3ccccc23)CC1,9.08
13,COc1ccc(NC(=O)C2=CC(c3ccco3)=NS(=O)(=O)N2C)cc1,6.47
14,Cc1cc(=O)oc2cc(OCC(=O)N3CCC(O)CC3)c(Cl)cc12,19.4
15,CCC(=O)Nc1nnc(/C=C/c2ccc(OC)cc2)s1,14.8
16,COc1ccccc1Nc1nc(NCCCCO)nc(N2CCCC2)n1,2.96
17,CCc1ccc(C(=O)OCC(=O)NCC(F)(F)F)cc1,21.1
18,Cc1ccc(C(=O)N2CCNC(=O)C2CC(=O)Nc2ccc(F)cc2)cc1C (stereo not drawn),11.5
19,CS(=O)(=O)N(CC(=O)NCc1ccco1)Cc1ccc(Cl)cc1,-17.7
20,Cc1cc(=O)[nH]c(-c2cccs2)n1,4.84
21,Cc1ccc(S(=O)(=O)N2CCCN(C(C)c3nc4ccccc4c(=O)[nH]3)CC2)cc1 (stereo not drawn),-17.1
22,O=C(Nc1ccccc1Cl)/C(Cl)=C(\Cl)S(=O)c1ccccc1 (stereo not drawn),15.9

row,SMILES,"hERG current change (%, negative = inhibition) at 1uM [%]"
1,Cc1c(Cl)c(C(=O)Nc2nc3ccccc3n2CCN2CCCCC2)nn1C,-61.5
2,CC(=O)Nc1ccc(S(=O)(=O)Nc2nc3ccccc3nc2Nc2ccc(N)cc2)cc1,23.9
3,Cc1ccc(C(=O)Nc2cccc3ccccc23)o1,15.3
4,CC(=O)Nc1ccc(SCC(=O)c2cc(C)ccc2C)cc1,10.7
5,O=C(CC1SC(=Nc2cccc3ccccc23)N(Cc2ccccn2)C1=O)Nc1ccccc1Br (stereo not drawn),10.8
6,C=C(C)c1cccc(C(C)(C)NC(=O)Nc2nncs2)c1,3
7,COc1ccc(CNC(=O)C/C(C)=N/NC(=O)c2cc(OC)cc(OC)c2)cc1,11.5
8,CCNc1cc(O)ccc1C,5.88
9,O=C(N/N=C/c1ccccc1)c1[nH]c2ccc(Br)cc2c1-c1ccccc1,12.8
10,CCCCOc1ccc(N(CC(=O)NCc2ccco2)C(=O)CCC(=O)Nc2nccs2)cc1,13.7
11,CCn1cc(CN(C)S(=O)(=O)c2cccc([N+](=O)[O-])c2)cn1,3.23
12,CNC(=S)N/N=C/c1ccco1,15.3
13,CCn1c(-c2cc3c(C(F)(F)F)nn(C)c3s2)n[nH]c1=S,11.7
14,COc1ccc(NC(=O)N/C=C/c2ccccc2)cc1,22.7
15,Cc1cc(C(=O)CSc2nncs2)c(C)n1Cc1ccco1,3.07
16,COc1ccc(C2C(C(=O)NCc3ccccn3)c3ccccc3C(=O)N2C)cc1OC (stereo not drawn),12.4
17,COc1cccc(CC(=O)OCC(=O)N(C)CC(=O)Nc2ccccc2Cl)c1,13.9
18,CC1=NN(c2ccccc2)C(=O)/C1=C/c1ccc[nH]1,7.87
19,Fc1ccc(F)c(C2=NNC(=NCC3CCCO3)SC2)c1 (stereo not drawn),9.19
20,CC(C)c1ccc2[nH]c(O)c(N=NC(=O)c3cccc(S(=O)(=O)N4CCCCC4)c3)c2c1,1.94
21,COc1ccccc1NS(=O)(=O)c1ccc(-c2cnc(C3CC3)o2)cc1,10.2
